Measured values published in PubChem BioAssay AID1259371 (The Scripps Research Institute Molecular Screening Center, 2018).
Not every entry of the source has a single result; some have several. They are shown here; other results are not. The source may hold further records. Results that share an entry are repeated measurements in other runs, samples, wells, individuals or studies. Records carry a tag for their origin. A, B and so on number the origins entry by entry.

Biological target: Microphthalmia-associated transcription factor (Homo sapiens) (UniProt O75030)
Test: MITF inhibitors, potency by titration, dose response, biochemical, AlphaScreen, human (AID 1259371)
Details: AlphaScreen biochemical MITF assay, signal inhibition

Sequence of UniProt O75030 (O75030 whole entry, looked up): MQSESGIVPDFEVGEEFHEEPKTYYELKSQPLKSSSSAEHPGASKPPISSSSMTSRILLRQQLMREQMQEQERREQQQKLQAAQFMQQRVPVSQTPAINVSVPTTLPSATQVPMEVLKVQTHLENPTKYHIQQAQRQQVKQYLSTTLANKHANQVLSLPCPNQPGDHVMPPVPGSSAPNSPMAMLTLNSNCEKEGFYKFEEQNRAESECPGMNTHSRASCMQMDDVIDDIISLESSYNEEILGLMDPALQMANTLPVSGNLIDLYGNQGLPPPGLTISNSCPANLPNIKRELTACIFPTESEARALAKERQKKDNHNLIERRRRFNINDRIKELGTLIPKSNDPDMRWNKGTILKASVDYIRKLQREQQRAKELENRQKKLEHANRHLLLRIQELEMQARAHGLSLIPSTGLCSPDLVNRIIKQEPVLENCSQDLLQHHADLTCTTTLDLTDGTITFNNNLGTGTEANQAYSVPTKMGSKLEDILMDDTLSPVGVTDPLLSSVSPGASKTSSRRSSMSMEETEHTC

SMILES: CN(C)[C@@H]1C(=O)C(C(=O)NCN2CCCC2)=C(O)[C@@]2(O)C(=O)C3=C(O)c4c(O)cccc4[C@@](C)(O)C3CC12 (stereo partly specified)
- IC50: 40.3 nM [sample A] and 11.8 nM [sample B] and 977 nM [sample C]
